Assay results: PubChem BioAssay AID504333 (National Center for Advancing Translational Sciences (NCATS), 2011)
Among all 360,000 compounds or so, about 16,000 (4.4%) were called active. This list was built around the results that the source calls inconclusive (neither active nor inactive); the mix of calls is not that of the screen. The call rests on the fitted dose curve; in most records, active means well fitted inhibition curve with a large enough effect; inconclusive means small, poorly fitted or top-dose-only effect; inactive means no such curve, though single readings can be large or run the other way. Where the call is inconclusive, the potency comes from a doubtful curve fit.

Target: Bromodomain adjacent to zinc finger domain protein 2B (Homo sapiens) (UniProt Q9UIF8)
Sequence of UniProt Q9UIF8 (Q9UIF8 whole entry, looked up, the tested form may be a part): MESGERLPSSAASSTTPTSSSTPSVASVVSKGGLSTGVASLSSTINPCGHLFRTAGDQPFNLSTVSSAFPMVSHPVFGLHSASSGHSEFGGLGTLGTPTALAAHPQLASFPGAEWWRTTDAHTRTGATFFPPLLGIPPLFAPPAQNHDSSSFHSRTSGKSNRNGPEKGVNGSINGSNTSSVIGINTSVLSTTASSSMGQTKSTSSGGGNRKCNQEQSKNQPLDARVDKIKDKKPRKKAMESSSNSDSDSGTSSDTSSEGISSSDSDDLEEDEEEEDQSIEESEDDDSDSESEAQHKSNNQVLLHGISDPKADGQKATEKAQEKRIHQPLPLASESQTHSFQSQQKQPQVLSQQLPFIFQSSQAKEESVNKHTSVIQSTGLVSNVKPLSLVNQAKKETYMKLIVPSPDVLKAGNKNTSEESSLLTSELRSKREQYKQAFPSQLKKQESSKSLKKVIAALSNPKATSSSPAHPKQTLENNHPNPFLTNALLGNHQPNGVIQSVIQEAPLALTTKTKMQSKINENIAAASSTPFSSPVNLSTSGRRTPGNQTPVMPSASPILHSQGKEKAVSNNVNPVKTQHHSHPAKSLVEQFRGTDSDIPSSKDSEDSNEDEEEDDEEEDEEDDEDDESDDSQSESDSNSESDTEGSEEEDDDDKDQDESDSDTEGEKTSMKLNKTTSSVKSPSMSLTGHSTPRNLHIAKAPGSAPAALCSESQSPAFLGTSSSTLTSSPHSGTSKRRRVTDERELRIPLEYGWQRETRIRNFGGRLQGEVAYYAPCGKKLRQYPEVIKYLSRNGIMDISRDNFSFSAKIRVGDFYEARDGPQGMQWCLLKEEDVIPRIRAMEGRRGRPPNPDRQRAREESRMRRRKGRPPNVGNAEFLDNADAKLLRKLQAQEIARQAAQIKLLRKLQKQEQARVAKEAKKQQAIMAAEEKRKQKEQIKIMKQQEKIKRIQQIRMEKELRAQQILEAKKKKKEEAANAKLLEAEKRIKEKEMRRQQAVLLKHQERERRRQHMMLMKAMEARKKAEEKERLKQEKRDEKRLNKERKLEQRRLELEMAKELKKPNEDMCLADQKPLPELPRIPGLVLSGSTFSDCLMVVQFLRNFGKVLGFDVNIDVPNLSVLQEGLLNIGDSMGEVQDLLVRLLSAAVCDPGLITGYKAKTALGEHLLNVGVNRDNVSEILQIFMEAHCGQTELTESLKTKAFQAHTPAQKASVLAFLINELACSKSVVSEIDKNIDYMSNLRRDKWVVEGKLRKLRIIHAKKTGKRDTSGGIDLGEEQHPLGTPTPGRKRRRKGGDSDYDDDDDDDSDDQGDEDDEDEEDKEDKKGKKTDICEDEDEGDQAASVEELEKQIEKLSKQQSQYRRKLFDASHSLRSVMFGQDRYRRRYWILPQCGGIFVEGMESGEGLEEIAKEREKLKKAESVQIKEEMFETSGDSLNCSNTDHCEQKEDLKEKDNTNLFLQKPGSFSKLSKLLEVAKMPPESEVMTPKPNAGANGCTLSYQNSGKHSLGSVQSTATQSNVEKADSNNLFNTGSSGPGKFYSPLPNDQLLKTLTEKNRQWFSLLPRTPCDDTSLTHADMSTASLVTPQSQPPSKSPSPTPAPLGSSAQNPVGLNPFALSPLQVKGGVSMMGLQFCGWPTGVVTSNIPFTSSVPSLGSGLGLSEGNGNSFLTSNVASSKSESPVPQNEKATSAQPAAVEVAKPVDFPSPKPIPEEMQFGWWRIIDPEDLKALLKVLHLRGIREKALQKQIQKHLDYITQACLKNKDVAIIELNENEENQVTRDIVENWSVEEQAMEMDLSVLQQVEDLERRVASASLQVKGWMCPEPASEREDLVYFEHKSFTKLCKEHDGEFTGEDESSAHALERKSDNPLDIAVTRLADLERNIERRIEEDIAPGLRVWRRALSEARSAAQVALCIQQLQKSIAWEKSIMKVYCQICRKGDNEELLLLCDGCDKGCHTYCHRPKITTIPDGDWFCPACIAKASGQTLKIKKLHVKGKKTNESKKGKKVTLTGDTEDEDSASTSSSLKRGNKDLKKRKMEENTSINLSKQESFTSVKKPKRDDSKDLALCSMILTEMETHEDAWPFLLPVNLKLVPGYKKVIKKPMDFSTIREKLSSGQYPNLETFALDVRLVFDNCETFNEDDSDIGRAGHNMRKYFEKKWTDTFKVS
Assay: qHTS Assay for Inhibitors of BAZ2B; further: nearly all actives have a fitted effect of over 60% in size
Details: AlphaScreen BAZ2B-H3K14Ac peptide displacement; activity change, negative = inhibition: at 114 µM (top of the series)
In short: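 BAZ2B (50 nM) with biotin-H3(5-23)K14Ac peptide (50 nM) in PBS pH 7.4, 0.01% Tween-20, preformed 30 min, then compound 30 min at room temperature; top concentration 110uM. AlphaScreen streptavidin donor/nickel chelate acceptor beads (10 ug/mL final), 20 min dark, signal read.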
On the % scale 0 is the no-effect control and ±100 the full control effect; potency means the concentration at half of the fitted maximal effect; tags describe the fitted curve by direction and shape.

Compound | Potency | activity change, negative = inhibition
CC(C)NS(=O)(=O)c1ccc(NCCCn2ccnc2)c([N+](=O)[O-])c1 | inconclusive: 56.2 µM [inhibitor, partial curve] | –
C/C(=N\Nc1ccc(F)cc1F)c1ccc(Br)s1 | – | inactive: -1.51%
Cc1cc(C)n2nc(CC(=O)NCc3ccc(F)cc3)nc2n1 | – | inactive: 13.2%
CN(C)c1ccc(/C=C2\CCCCC2=O)cc1 | inconclusive: 44.7 µM [inhibitor, partial curve] | –
O=C(c1cccc(C(F)(F)F)c1)N1CCN(C2CCCCC2)CC1 | – | inactive: 5.16%
Cc1ccc(C)c(C(=O)CSc2nc(C)cc(=O)[nH]2)c1 | inconclusive: 89.1 µM [inhibitor, single point] | –
COc1cc(-c2nc(-c3ccccc3)c(-c3cc([N+](=O)[O-])ccc3C)[nH]2)cc(OC)c1OC | inconclusive: 35.5 µM [inhibitor, full curve] | –
O=C1OCC/C1=C\OCCCO/C=C1\CCOC1=O | – | inactive: -1.37%
COc1cccc(CN2CCC(n3nccc3NC(=O)CCCc3ccccc3)CC2)c1 | – | inactive: -9.59%
CC(/C=C1\SC(=S)N(CCC(=O)Nc2nc(C)cs2)C1=O)=C\c1ccccc1 | inconclusive: 2.51 µM [inhibitor, full curve] | –
COc1ccccc1N1CCN(Cc2nc(-c3ccc(F)cc3)oc2C)CC1 | inconclusive: 1.41 µM [inhibitor, full curve] | –
COc1cccc2sc(Nc3nc(-c4cc5ccccc5oc4=O)cs3)nc12 | – | inactive: -8.86%
CC1=NOC(=O)/C1=C/c1ccc(O)cc1 | active: 50.1 µM | –
CC(=O)c1ccc(NS(=O)(=O)c2cnc(N)nc2)cc1 | inconclusive: 89.1 µM [inhibitor, single point] | –
CCn1cc(C(=O)O)c(=O)c2cnc(N3CCN(C(=S)Nc4ccccc4)CC3)nc21 | inconclusive: 89.1 µM [inhibitor, single point] | –
CCC(=O)c1cn(CC(=O)Nc2cc(C)ccc2C)c2ccccc12 | inconclusive: 89.1 µM [inhibitor, single point] | –
COc1cc(/C=C(/C#N)c2nc3ccccc3[nH]2)ccc1OCC(=O)Nc1ccccc1C | – | inactive: -6.76%
Cc1ccc(-n2c(-c3ccccc3)n[nH]c2=S)cc1 | inconclusive: 89.1 µM [inhibitor, single point] | –
Cc1cc(C)c(S(=O)(=O)N2CCOC2CNC(=O)C(=O)NCCc2c[nH]c3ccccc23)c(C)c1 (stereo unspecified) | inconclusive: 39.8 µM [inhibitor, full curve, poor fit] | –
CCc1c(C)nc2ncnn2c1NCc1cccs1 | – | inactive: 3.32%
O=C(c1cc(C2CC2)nn1-c1ccccc1)N1CCN(c2ccc(O)cc2)CC1 | inconclusive: 79.4 µM [inhibitor, single point] | –
CCOc1ccc(NC(=O)C2CCC(CNS(=O)(=O)c3ccc4c(c3)CCCC(=O)N4)CC2)cc1 (stereo unspecified) | – | inactive: 1.99%
CCCc1nn(C)c(C(=O)Nc2ccc(C(C)(C)C)cc2)c1Cl | – | inactive: 39.1%
COc1ccc(N2CCN(Cc3cc4c(cc3Br)OCCO4)CC2)cc1 | active: 12.6 µM | –
COc1ccc(/C=N/Nc2nc(-c3ccc(C)cc3)c(NC(C)=O)s2)cc1OC | inconclusive: 39.8 µM [inhibitor, partial curve] | –
C/C(=N\Nc1ccccc1)c1cccc(N)c1 | inconclusive: 39.8 µM [inhibitor, partial curve] | –

Compound | Potency | activity change, negative = inhibition
CCN(CC(=O)Nc1ccc(OC)cc1)C(=O)c1ccc2[nH]c3c(c2c1)CC(C)CC3 (stereo unspecified) | inconclusive: 20 µM [inhibitor, full curve] | –
COc1cc(OC)cc(C(=O)Nc2cccc(-c3cn4ccsc4n3)c2)c1 | active: 70.8 µM | –
COc1cc(/C=C2\C(=N)N3N=C(S(C)(=O)=O)SC3=NC2=O)ccc1OC(=O)c1cccs1 | active: 56.2 µM | –
CCn1c(O)c(C=Nc2ccccc2)n(-c2ccccc2)c1=S | – | inactive: 12%
CN(C(=O)CSc1nc(-c2ccccc2)c(-c2ccccc2)o1)C1CCS(=O)(=O)C1 (stereo unspecified) | inconclusive: 39.8 µM [inhibitor, partial curve] | –
O=C(N/N=C/c1ccccn1)c1cccc(S(=O)(=O)Nc2ccccc2Cl)c1 | inconclusive: 89.1 µM [inhibitor, single point] | –
CSCCC(NC(=O)c1ccc(Cl)cc1Cl)C(=O)NCc1ccccn1 (stereo unspecified) | – | inactive: -15%
COc1ccc(Cl)cc1NC(=O)CCn1nc(C)cc1C | active: 70.8 µM | –
CN1CCc2c1nc1ccccc1c2NC(=O)CN1CCCC1 | inconclusive: 79.4 µM [inhibitor, single point] | –
CN1C(=O)c2ccccc2Sc2ccc(NC(=O)N3CCN(c4cccc(Cl)c4)CC3)cc21 | inconclusive: 89.1 µM [inhibitor, single point] | –
CCc1cccc(C)c1NC(=O)c1cc(S(=O)(=O)N2CCN(c3ccccc3)CC2)ccc1F | – | inactive: 4.6%
O=C(NC12CC3CC(CC(C3)C1)C2)c1ccc([N+](=O)[O-])o1 | inconclusive: 89.1 µM [inhibitor, single point] | –
Cc1ccc(NC(=O)c2cn(CCC#N)nc2-c2cccs2)c([N+](=O)[O-])c1 | inconclusive: 79.4 µM [inhibitor, partial curve] | –
CCc1ccc(C(=O)/C=C/c2ccc([N+](=O)[O-])o2)cc1 | inconclusive: 8.91 µM [inhibitor, full curve] | –
CCc1ccc(-c2[nH]nc3nc(-c4cc(OC)ccc4OC)cc(C(=O)O)c23)cc1 | inconclusive: 89.1 µM [inhibitor, partial curve] | –
CC1(C)Oc2ccc3ccc(=O)oc3c2/C(=C/Nc2cccc(O)c2)C1=O | inconclusive: 39.8 µM [inhibitor, partial curve] | –
CC(C)c1ccc(/C=C2\C(=O)N(CCN3CCOCC3)C(=S)N2C)cc1 | inconclusive: 63.1 µM [inhibitor, partial curve, poor fit] | –
O=[N+]([O-])c1cc(-c2nc3nc4ccccc4nc3n2CCc2ccccc2)cc([N+](=O)[O-])c1 | – | inactive: 16.4%
Cc1cccc(NNC(=O)C2CCC2)c1 | – | inactive: 0.668%
O=c1nc(Nc2ccccc2)sc2ccc([N+](=O)[O-])cc12 | inconclusive: 89.1 µM [inhibitor, single point] | –
Cc1sc2ncnc(SCC(=O)NC(C)(C)C)c2c1C | – | inactive: -3.26%
COc1ccc(CN(CCN(C)C)Cc2ccccc2)c(OC)c1 | active: 79.4 µM | –
Cc1nn(-c2ccccc2)c(N)c1N=Nc1ccc(Cl)cc1 | active: 39.8 µM | –
CC(C)c1ccc(C2/C(=C(/O)c3ccccc3)C(=O)C(=O)N2CCCN2CCOCC2)cc1 (stereo unspecified) | inconclusive: 89.1 µM [inhibitor, single point] | –
O=C(O)c1ccc(/C=C2\SC(=Nc3ccccc3)N(c3ccccc3)C2=O)cc1 | – | inactive: -6.89%
CCOc1cccc(/C=N/Nc2ccc(S(=O)(=O)N(CC)CC)cn2)c1O | – | inactive: -3.1%

Compound | Potency | activity change, negative = inhibition
O=C(COc1ccccc1Cl)Nc1ccc2nc(SCC(=O)N3CCOCC3)sc2c1 | inconclusive: 70.8 µM [inhibitor, partial curve, poor fit] | –
CC1CCC(C(C)C)C(OCC(O)CN2CCN(Cc3ccccc3)CC2)C1 (stereo unspecified) | inconclusive: 89.1 µM [inhibitor, single point] | –
Cc1ccc(NC(=O)CSc2nccn2-c2ccccc2)cc1 | inconclusive: 39.8 µM [inhibitor, partial curve] | –
COc1ccc(NC(=O)C(NCC(C)C)c2ccccc2)cc1Cl (stereo unspecified) | active: 39.8 µM | –
CCCOc1ccc(/C=C2\SC(=S)N(CC3CCCO3)C2=O)cc1 (stereo unspecified) | inconclusive: 10 µM [inhibitor, full curve] | –
CCc1nnc(NC(=O)c2ccc(S(C)(=O)=O)cc2)s1 | – | inactive: -5.48%
S=c1nc(-c2cc(Cl)cc(Cl)c2)[nH][nH]1 | – | inactive: -5.45%
COc1ccc(Nc2cc(C(=O)NCc3ccco3)c3ccccc3n2)c(OC)c1 | active: 50.1 µM | –
CC1(C)COC(c2cc([N+](=O)[O-])ccc2Cl)=N1 | – | inactive: 5.3%
Cc1cc(=O)n(C)c(=O)n1CCCCCCN1CCCC1 | inconclusive: 89.1 µM [inhibitor, single point] | –
Cc1ccc(/C=N/NC(=S)Nc2cccc(S(=O)(=O)N(C)C)c2)o1 | inconclusive: 44.7 µM [inhibitor, partial curve] | –
OC(CN1CCN(c2ccccc2Cl)CC1)c1ccccc1 (stereo unspecified) | – | inactive: -0.0474%
CCOc1ccc(NC(=O)CC(NCc2ccccn2)C(=O)O)cc1 (stereo unspecified) | active: 1.41 µM | –
CC1CC(C)CN(CCCNS(=O)(=O)c2ccc3c(c2)oc(=O)n3C)C1 (stereo unspecified) | – | inactive: -14.7%
COc1ccc(-c2cc(C(F)(F)F)nc(SCC(=O)N(C)Cc3ccccc3)n2)cc1 | – | inactive: 10.2%
COc1ccc(CN=C(Nc2ccccc2)SC2CC(=O)NC2=O)cc1 (stereo unspecified) | inconclusive: 50.1 µM [inhibitor, partial curve] | –
C=CCSC1=C(C#N)C(c2ccc(OCC)cc2)CC(=O)N1 (stereo unspecified) | – | inactive: 9.97%
CCCC(c1nnnn1Cc1ccc(OC)cc1)N1CCC(C(N)=O)CC1 (stereo unspecified) | inconclusive: 89.1 µM [inhibitor, single point] | –
CC1CCCCC1NC(=O)c1ccc(S(=O)(=O)NNC(=O)c2ccncc2)cc1 (stereo unspecified) | active: 89.1 µM | –
Oc1ccccc1N1CCN(c2ccc3ccccc3n2)CC1 | – | inactive: -7.45%
Cn1nc(C(=O)NCc2ccccc2Cl)c2c1-c1ccccc1SC2 | – | inactive: -0.799%
COc1cccc(C2CC(c3ccc(Br)cc3)=NN2C(=O)c2ccncc2)c1OC (stereo unspecified) | active: 31.6 µM | –
CC(C)Nc1nnc(SCC(=O)Nc2ccc3c(c2)C(=O)c2ccccc2C3=O)s1 | inconclusive: 79.4 µM [inhibitor, single point] | –
O=C(/C=C/C=C/c1ccccc1)c1ccco1 | inconclusive: 28.2 µM [inhibitor, partial curve] | –
